# Results as given in the supplement of paper PMC8728848.
# Some of the results follow.
# B1: LYVE-1 (Homo sapiens), Q9Y5Y7 (protein)
# chain: MARCFSLVLLLTSIWTTRLLVQGSLRAEELSIQVSCRIMGITLVSKKANQQLNFTEAKEACRLLGLSLAGKDQVETALKASFETCSYGWVGDGFVVISRISPNPKCGKNGVGVLIWKVPVSRQFAAYCYNSSDTWTNSCIPEIITTKDPIFNTQTATQTTEFIVSDSTYSVASPYSTIPAPTTTPPAPASTSIPRRKKLICVTEVFMETSTMSTETEPFVENKAAFKNEAAGDPEVKFNWYVDGVEVHNAKPREEQYNSTYRVVSLVTVLHQDWLNGKEYKCKVSNKALPAPIEKTISKAKGQPREPQVYTLPPSRDELTKNQVSLTCLVKGFYPSDIAVEWESNGQPENNYKTTPPVLDSDGSFFLYSKLTVDKSRWQQGNVFSCSVMHEALHNHYTQRSLSLSPGK
# How the values were obtained:
# Experiment in all cases: glycan array binding signal (z-score within array); higher = stronger binding
# Settings in all cases: glycan notation: IUPAC condensed, linker removed
# [1] = biological target: Fuc(a1-2)[GalNAc(a1-3)]Gal(b1-4)[Fuc(a1-3)]GlcNAc
# Method in brief: (§1)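 The binding signal is a Z-score computed within each array. Data were drawn from 3228 arrays in the Consortium for Functional Glycomics database, restricted to those with a known protein sequence. Scores were averaged over arrays of the same protein sequence at different concentrations or buffers, and over linkers, and negative values can be taken as non-binding.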
# [2] = biological target: Fuc(a1-2)[GalNAc(a1-4)]Gal(b1-4)GlcNAc
# Method in brief: as §1
# [3] = biological target: Fuc(a1-2)[GalNAc(b1-3)]Gal
# Method in brief: as §1
# [4] = biological target: Fuc(a1-3)GlcNAc
# Method in brief: as §1
# [5] = biological target: Fuc(a1-3)[Gal(b1-4)]Glc6S
# Method in brief: as §1
# [6] = biological target: Fuc(a1-3)[Gal(b1-4)]GlcNAc
# Method in brief: as §1
# [7] = biological target: Fuc(a1-3)[Gal(b1-4)]GlcNAc(b1-2)Man(a1-3)[Fuc(a1-3)[Gal(b1-4)]GlcNAc(b1-2)Man(a1-6)]Man(b1-4)GlcNAc(b1-4)GlcNAc
# Method in brief: as §1
# [8] = biological target: Fuc(a1-3)[Gal(b1-4)]GlcNAc(b1-2)Man(a1-6)[Gal(b1-4)GlcNAc(b1-2)Man(a1-3)]Man(b1-4)GlcNAc(b1-4)GlcNAc
# Method in brief: as §1
# [9] = biological target: Fuc(a1-3)[Gal(b1-4)]GlcNAc(b1-3)Gal(b1-3)[Fuc(a1-4)]GlcNAc
# Method in brief: as §1
# [10] = biological target: Fuc(a1-3)[Gal(b1-4)]GlcNAc(b1-4)Gal(b1-4)[Fuc(a1-3)]GlcNAc
# Method in brief: as §1
# [11] = biological target: Fuc(a1-3)[Gal(b1-4)]GlcNAc(b1-4)Gal(b1-4)[Fuc(a1-3)]GlcNAc(b1-4)Gal(b1-4)[Fuc(a1-3)]GlcNAc
# Method in brief: as §1
# [12] = biological target: Fuc(a1-3)[Gal(b1-4)]GlcNAc6S
# Method in brief: as §1
# [13] = biological target: Fuc(a1-3)[Gal3S(b1-4)]Glc6S
# Method in brief: as §1
# [14] = biological target: Fuc(a1-3)[Gal3S(b1-4)]GlcNAc
# Method in brief: as §1
# [15] = biological target: Fuc(a1-3)[Gal3S(b1-4)]GlcNAc6S
# Method in brief: as §1
# [16] = biological target: Fuc(a1-3)[GalNAc(b1-4)]GlcNAc
# Method in brief: as §1
# [17] = biological target: Fuc(a1-4)GlcNAc
# Method in brief: as §1
# [18] = biological target: Fuc(b1-3)GlcNAc
# Method in brief: as §1
# [19] = biological target: Gal(a1-2)Gal
# Method in brief: as §1
# [20] = biological target: Gal(a1-3)Gal
# Method in brief: as §1
# [21] = biological target: Gal(a1-3)Gal(b1-3)GlcNAc
# Method in brief: as §1
# [22] = biological target: Gal(a1-3)Gal(b1-4)Glc
# Method in brief: as §1
# [23] = biological target: Gal(a1-3)Gal(b1-4)GlcNAc
# Method in brief: as §1
# [24] = biological target: Gal(a1-3)Gal(b1-4)[Fuc(a1-3)]GlcNAc
# Method in brief: as §1
# [25] = biological target: Gal(a1-3)GalNAc
# Method in brief: as §1
# [26] = biological target: Gal(a1-3)[Gal(a1-4)]Gal(b1-4)GlcNAc
# Method in brief: as §1
# [27] = biological target: Gal(a1-4)Gal(b1-4)Glc
# Method in brief: as §1
# [28] = biological target: Gal(a1-4)Gal(b1-4)GlcNAc
# Method in brief: as §1
# [29] = biological target: Gal(a1-4)GlcNAc
# Method in brief: as §1
# [30] = biological target: Gal(a1-6)Glc
# Method in brief: as §1
# [31] = biological target: Gal(b1-2)Gal
# Method in brief: as §1
# [32] = biological target: Gal(b1-3)Gal
# Method in brief: as §1
# [33] = biological target: Gal(b1-3)Gal(b1-4)GlcNAc
# Method in brief: as §1
# [34] = biological target: Gal(b1-3)GalNAc
# Method in brief: as §1
# [35] = biological target: Gal(b1-3)GalNAc(b1-3)Gal(a1-4)Gal(b1-4)Glc
# Method in brief: as §1
# [36] = biological target: Gal(b1-3)GalNAc(b1-4)Gal(b1-4)Glc
# Method in brief: as §1
# [37] = biological target: Gal(b1-3)GalNAc(b1-4)[Neu5Ac(a2-3)]Gal(b1-4)Glc
# Method in brief: as §1
# [38] = biological target: Gal(b1-3)GlcNAc
# Method in brief: as §1
# [39] = biological target: Gal(b1-3)GlcNAc(b1-2)Man(a1-3)[Gal(b1-3)GlcNAc(b1-2)Man(a1-6)]Man(b1-4)GlcNAc(b1-4)GlcNAc
# Method in brief: as §1
# [40] = biological target: Gal(b1-3)GlcNAc(b1-3)Gal(b1-3)GlcNAc
# Method in brief: as §1
# [41] = biological target: Gal(b1-3)GlcNAc(b1-3)Gal(b1-4)Glc
# Method in brief: as §1
# [42] = biological target: Gal(b1-3)GlcNAc(b1-3)Gal(b1-4)GlcNAc
# Method in brief: as §1
# [43] = biological target: Gal(b1-3)[Fuc(a1-4)]GlcNAc
# Method in brief: as §1
# [44] = biological target: Gal(b1-3)[Fuc(a1-4)]GlcNAc(b1-3)Gal(b1-3)[Fuc(a1-4)]GlcNAc
# Method in brief: as §1
# [45] = biological target: Gal(b1-3)[Fuc(a1-4)]GlcNAc(b1-3)Gal(b1-4)GlcNAc
# Method in brief: as §1
binder,measurement,setting,value
B1,glycan array binding signal (z-score),[1],0.095
same,glycan array binding signal (z-score),[2],-0.022
same,glycan array binding signal (z-score),[3],-0.162
same,glycan array binding signal (z-score),[4],-0.378
same,glycan array binding signal (z-score),[5],0.049
same,glycan array binding signal (z-score),[6],-0.243
same,glycan array binding signal (z-score),[7],-0.11
same,glycan array binding signal (z-score),[8],0.1
same,glycan array binding signal (z-score),[9],-0.317
same,glycan array binding signal (z-score),[10],0.813
same,glycan array binding signal (z-score),[11],-0.652
same,glycan array binding signal (z-score),[12],-0.346
same,glycan array binding signal (z-score),[13],-0.066
same,glycan array binding signal (z-score),[14],-0.262
same,glycan array binding signal (z-score),[15],-0.586
same,glycan array binding signal (z-score),[16],-0.334
same,glycan array binding signal (z-score),[17],0.095
same,glycan array binding signal (z-score),[18],-0.121
same,glycan array binding signal (z-score),[19],-0.243
same,glycan array binding signal (z-score),[20],0.068
same,glycan array binding signal (z-score),[21],0.144
same,glycan array binding signal (z-score),[22],0.282
same,glycan array binding signal (z-score),[23],-0.02
same,glycan array binding signal (z-score),[24],0.523
same,glycan array binding signal (z-score),[25],-0.27
same,glycan array binding signal (z-score),[26],0.241
same,glycan array binding signal (z-score),[27],-0.09
same,glycan array binding signal (z-score),[28],-0.596
same,glycan array binding signal (z-score),[29],-0.269
same,glycan array binding signal (z-score),[30],-0.094
same,glycan array binding signal (z-score),[31],-0.409
same,glycan array binding signal (z-score),[32],0.411
same,glycan array binding signal (z-score),[33],0.222
same,glycan array binding signal (z-score),[34],0.044
same,glycan array binding signal (z-score),[35],-0.219
same,glycan array binding signal (z-score),[36],-0.278
same,glycan array binding signal (z-score),[37],0.269
same,glycan array binding signal (z-score),[38],-0.254
same,glycan array binding signal (z-score),[39],-0.187
same,glycan array binding signal (z-score),[40],-0.363
same,glycan array binding signal (z-score),[41],-0.269
same,glycan array binding signal (z-score),[42],0.833
same,glycan array binding signal (z-score),[43],-0.191
same,glycan array binding signal (z-score),[44],0.188
same,glycan array binding signal (z-score),[45],-0.026
